# Measurements from the supplement of paper PMC10037445.
# Values joined by “and” are separate entries in the source; they are usually repeats but may differ in a detail not shown here. Identical values can stand only once. ± gives the standard deviation of the averaged measurements. In all, about 2,900 compounds were measured (“IRF Lucia reporter activity, fold change vs agonist alone”: median about 0.9, highest 2% from about 2.8 on). Some of the results follow.
# Key:
# [1] = tested on: RAW-Dual; test: IRF Lucia reporter activity, fold change vs agonist alone; cytotoxicity flag (confluency mask): not cytotoxic; higher = enhanced IRF activity
# Outline: (§1)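 After 50 nL of library stock was delivered by pin tool to RAW-Dual macrophages (50,000 cells/well, DMEM, 384-well plates), a PRR agonist was added 1 h later and the plates were kept at 37 °C, 5% CO2. Twenty hours later, IRF was read from supernatant by QuantiLuc luminescence and NF-κB by QuantiBlue absorbance at 620 nm. Reporter activity is stated as fold change over agonist-alone wells. Wells with IncuCyte confluency under 70% of agonist controls in both mask sets were counted as cytotoxic.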
# [2] = tested on: RAW-Dual; test: IRF Lucia reporter activity, fold change vs agonist alone; higher = enhanced IRF activity; details: cytotoxicity flag (confluency mask): not cytotoxic, agonist: MPLA (TLR4) […]
# Outline: as §1
# [3] = tested on: RAW-Dual; test: IRF Lucia reporter activity, fold change vs agonist alone; cytotoxicity flag (confluency mask): cytotoxic (confluency <70% of control); higher = enhanced IRF activity
# Outline: as §1
# [4] = agonist: 3'3'-cGAMP (STING) 10 ug/mL
# [5] = library stock concentration (final ~1000-fold dilution): 10 mM
smiles,measurement,setting,value
CNC(=O)c1ccccc1Nc1cc(Nc2ccc(N3CCOCC3)cc2OC)ncc1C(F)(F)F (library stock concentration (final ~1000-fold dilution): 10 mM),IRF Lucia reporter activity,[1]; [4],0.0797
same,IRF Lucia reporter activity,[1]; agonist: LPS (TLR4) 0.1 ug/mL,0.307
CNC(=O)c1cc(Oc2ccc(NC(=O)Nc3ccc(Cl)c(C(F)(F)F)c3)cc2)ccn1 (library stock concentration (final ~1000-fold dilution): 10 mM),IRF Lucia reporter activity,[1]; [4],0.122
same,IRF Lucia reporter activity,[1]; agonist: LPS (TLR4) 0.1 ug/mL,1.47
CNC(=O)c1cc(Oc2ccc(NC(=O)Nc3ccc(Cl)c(C(F)(F)F)c3)cc2)ccn1,IRF Lucia reporter activity,[2]; [5],1.21
Cc1ccc(S(=O)(=O)Cc2nc(-c3ccc(C(=O)NCc4cccnc4)cc3)oc2C)cc1,IRF Lucia reporter activity,[2]; [5],0.649
Cc1ccc(S(=O)(=O)Cc2nc(-c3ccc(C(=O)NCc4cccnc4)cc3)oc2C)cc1 (library stock concentration (final ~1000-fold dilution): 10 mM),IRF Lucia reporter activity,[1]; [4],0.831
same,IRF Lucia reporter activity,[1]; agonist: LPS (TLR4) 0.1 ug/mL,0.438
O=C1CC(c2ccc(O)cc2)Oc2cc(O)cc(O)c21 (stereo not given) (library stock concentration (final ~1000-fold dilution): 10 mM),IRF Lucia reporter activity,[1]; [4],0.853
same,IRF Lucia reporter activity,[1]; agonist: LPS (TLR4) 0.1 ug/mL,0.848
O=C1CC(c2ccc(O)cc2)Oc2cc(O)cc(O)c21 (stereo not given),IRF Lucia reporter activity,[2]; [5],0.931
CCn1cc(C(=O)O)c(=O)c2c(N)c(F)c(NC3CCCCC3)cc21 (library stock concentration (final ~1000-fold dilution): 10 mM),IRF Lucia reporter activity,[1]; [4],0.545
same,IRF Lucia reporter activity,[1]; agonist: LPS (TLR4) 0.1 ug/mL,0.223
COc1cc(-c2oc3cc(O)cc(O)c3c(=O)c2O)ccc1O (library stock concentration (final ~1000-fold dilution): 10 mM),IRF Lucia reporter activity,[1]; [4],0.165 ± 0.043
same,IRF Lucia reporter activity,[1]; agonist: LPS (TLR4) 0.1 ug/mL,0.745 ± 0.063
CN(c1ccccc1CNc1nc(Nc2ccc3c(c2)CC(=O)N3)ncc1C(F)(F)F)S(C)(=O)=O (library stock concentration (final ~1000-fold dilution): 10 mM),IRF Lucia reporter activity,[3]; [4],0.0122
same,IRF Lucia reporter activity,[3]; agonist: LPS (TLR4) 0.1 ug/mL,0.0141
S=C(S)N1CCCC1 (library stock concentration (final ~1000-fold dilution): 10 mM),IRF Lucia reporter activity,[3]; [4],0.392
same,IRF Lucia reporter activity,[3]; agonist: LPS (TLR4) 0.1 ug/mL,0.791
COc1cc(N2CCN(C)CC2)ccc1Nc1ncc2c(n1)N(C)c1ccccc1C(=O)N2 (library stock concentration (final ~1000-fold dilution): 10 mM),IRF Lucia reporter activity,[1]; [4],0.443
same,IRF Lucia reporter activity,[1]; agonist: LPS (TLR4) 0.1 ug/mL,0.772
C[N+]1(C)CCC[C@H]1C(=O)O (library stock concentration (final ~1000-fold dilution): 10 mM),IRF Lucia reporter activity,[1]; [4],1.01
same,IRF Lucia reporter activity,[1]; agonist: LPS (TLR4) 0.1 ug/mL,1.13
O=c1oc2c(O)c(O)cc3c(=O)oc4c(O)c(O)cc1c4c23 (library stock concentration (final ~1000-fold dilution): 2 mM),IRF Lucia reporter activity,[1]; [4],1.02
same,IRF Lucia reporter activity,[1]; agonist: LPS (TLR4) 0.1 ug/mL,0.908
O=c1oc2c(O)c(O)cc3c(=O)oc4c(O)c(O)cc1c4c23,IRF Lucia reporter activity,[2]; library stock concentration (final ~1000-fold dilution): 2 mM,1.36
Cc1csc(-c2nc[nH]c2-c2ccc3ncsc3c2)n1.Cl (library stock concentration (final ~1000-fold dilution): 10 mM),IRF Lucia reporter activity,[1]; [4],0.341
same,IRF Lucia reporter activity,[1]; agonist: LPS (TLR4) 0.1 ug/mL,0.655
CC(=O)c1cc2c(o1)C(=O)c1ccccc1C2=O (library stock concentration (final ~1000-fold dilution): 10 mM),IRF Lucia reporter activity,[3]; [4],0.306
same,IRF Lucia reporter activity,[3]; agonist: LPS (TLR4) 0.1 ug/mL,0.00847
CCN(CC)CC(=O)Nc1c(C)cccc1C (library stock concentration (final ~1000-fold dilution): 10 mM),IRF Lucia reporter activity,[1]; [4],1.25 and 1.17
same,IRF Lucia reporter activity,[1]; agonist: LPS (TLR4) 0.1 ug/mL,1.14 and 1.52
CCC(C)(Oc1ccc(C2(c3ccc(OC(C)(CC)C(=O)O)cc3)CCCCC2)cc1)C(=O)O (stereo not given) (library stock concentration (final ~1000-fold dilution): 10 mM),IRF Lucia reporter activity,[1]; [4],1.1
same,IRF Lucia reporter activity,[1]; agonist: LPS (TLR4) 0.1 ug/mL,0.969
CCC(C)(Oc1ccc(C2(c3ccc(OC(C)(CC)C(=O)O)cc3)CCCCC2)cc1)C(=O)O (stereo not given),IRF Lucia reporter activity,[2]; [5],1.26
CNc1cc(-c2cccc(Cl)c2Cl)nc(N)n1 (library stock concentration (final ~1000-fold dilution): 10 mM),IRF Lucia reporter activity,[1]; [4],0.702
same,IRF Lucia reporter activity,[1]; agonist: LPS (TLR4) 0.1 ug/mL,0.735
OCC1NCC(O)C(O)C1O (stereo not given),IRF Lucia reporter activity,[2]; [5],1.09
OCC1NCC(O)C(O)C1O (stereo not given) (library stock concentration (final ~1000-fold dilution): 10 mM),IRF Lucia reporter activity,[1]; [4],1.06
same,IRF Lucia reporter activity,[1]; agonist: LPS (TLR4) 0.1 ug/mL,1.06
c1nc2c(NC3CCCCC3)nc(Nc3ccc(N4CCOCC4)cc3)nc2[nH]1 (library stock concentration (final ~1000-fold dilution): 10 mM),IRF Lucia reporter activity,[3]; [4],0.107
same,IRF Lucia reporter activity,[3]; agonist: LPS (TLR4) 0.1 ug/mL,0.0806
COc1cc2nccc(Oc3ccc(NC(=O)NC4CC4)c(Cl)c3)c2cc1C(N)=O (library stock concentration (final ~1000-fold dilution): 10 mM),IRF Lucia reporter activity,[1]; [4],0.453
same,IRF Lucia reporter activity,[1]; agonist: LPS (TLR4) 0.1 ug/mL,0.643
COc1cc2nccc(Oc3ccc(NC(=O)NC4CC4)c(Cl)c3)c2cc1C(N)=O,IRF Lucia reporter activity,[2]; [5],0.592
